# Results as given in the supplement of paper PMC3334620.
# The full ranking holds about 33,000 sequences; the median of “E-score (-0.5 to 0.5)” is about -0.011, and the highest 2% start at about 0.28. Some of the results follow.
# Molecular target: T1, Gcr1 (UniProt P07261)
# T1 sequence: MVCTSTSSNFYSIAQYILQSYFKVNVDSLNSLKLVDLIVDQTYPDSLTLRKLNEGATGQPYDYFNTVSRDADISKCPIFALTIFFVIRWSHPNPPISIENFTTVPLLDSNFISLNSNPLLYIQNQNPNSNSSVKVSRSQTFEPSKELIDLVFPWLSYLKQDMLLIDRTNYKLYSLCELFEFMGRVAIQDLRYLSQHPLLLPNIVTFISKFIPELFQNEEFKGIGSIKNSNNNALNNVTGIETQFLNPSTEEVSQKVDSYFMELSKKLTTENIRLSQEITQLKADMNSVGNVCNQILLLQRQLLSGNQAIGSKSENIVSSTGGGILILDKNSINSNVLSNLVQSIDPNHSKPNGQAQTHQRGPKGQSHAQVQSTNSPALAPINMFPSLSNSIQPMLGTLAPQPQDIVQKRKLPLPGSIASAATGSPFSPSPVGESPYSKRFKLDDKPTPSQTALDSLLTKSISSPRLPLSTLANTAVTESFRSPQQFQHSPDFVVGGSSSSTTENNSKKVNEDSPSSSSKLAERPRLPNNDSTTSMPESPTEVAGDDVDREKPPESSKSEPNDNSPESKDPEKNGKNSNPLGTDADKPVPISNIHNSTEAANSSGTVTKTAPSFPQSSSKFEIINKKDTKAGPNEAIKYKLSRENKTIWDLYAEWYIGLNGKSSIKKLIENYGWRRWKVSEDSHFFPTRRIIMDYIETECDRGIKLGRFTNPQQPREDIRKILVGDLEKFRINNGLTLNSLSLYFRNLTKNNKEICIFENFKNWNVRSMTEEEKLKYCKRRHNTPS
# Assay: PBM E-score (8-mer binding enrichment) (E-score (-0.5 to 0.5)); higher = stronger / more preferred TF binding; most listed sequences are background and not binding sites
# Settings: protein concentration: 100 nM; construct: GST-full length
# Experimental: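 Universal 'all 10-mer' protein binding microarrays (Agilent AMADID 015681) probed with GST-tagged S. cerevisiae TFs (full-length or DBD) made by in vitro transcription/translation (PURExpress), about 100-200 nM. Bound TF was detected with fluorescent anti-GST. Each ungapped 8-mer (which stands for itself and its reverse complement) is scored by the PBM enrichment score (E-score), a modified Wilcoxon-Mann-Whitney statistic from -0.5 to +0.5, computed with the Universal PBM Analysis Suite. Scale: above 0.35 generally sequence-specific binding.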
row,Sequence,PBM E-score
1,AAGCGAGG,0.127
2,AGACAGAG,-0.131
3,ATGCAGCC,-0.0977
4,CGGAATGA,-0.0542
5,CAAAACCG,-0.117
6,GATCGAGA,-0.207
7,TACCACGA,-0.0214
8,CGAAGCTC,0.118
9,GGACTCGA,0.0404
10,ATTGCGCA,-0.14
11,ATTGGTTC,0.189
12,ATACGGTC,-0.134
13,GAATGCTA,-0.121
14,CCTTCATC,-0.13
15,GGTATAAA,0.0226
16,TAACATAA,0.0865
17,GACCGCTA,0.0356
18,ATTCTGTG,0.0737
19,GCCATTCC,-0.0224
20,ACACCACC,-0.0253
21,GGCTTCTA,0.297
22,AGGCGCAG,0.157
23,TGCTCTAA,-0.0393
24,GATATATA,0.0599
25,CGCTATGC,-0.0477

row,Sequence,PBM E-score
1,CAGTCTAC,-0.0756
2,ACTACTTC,-0.00304
3,AGGGAAAT,-0.173
4,CGGCAACC,0.29
5,AACGCCAA,-0.0477
6,GAGTGATA,-0.122
7,AGAAGGAG,0.0188
8,ATGGCCGG,-0.108
9,CCCGCTCA,-0.133
10,AGAACCAA,0.085
11,ACCCAATC,0.0645
12,CTGGGCGC,0.188
13,AGGATTGA,0.106
14,CAATTGGG,-0.0107
15,AGCAATCG,-0.0942
16,GACTGGCA,-0.0492
17,ATCTTGTC,0.0474
18,CGCATGGA,-0.081
19,CATTATGG,0.0489
20,CCTTCGCG,0.0246
21,CTCTCTGA,-0.0303
22,CTAACCGA,-0.194
23,CATTGTTA,0.0221
24,ATGTGGCC,-0.0967
25,AGTGTGGC,0.108

row,Sequence,PBM E-score
1,GGAACCCA,0.394
2,CATTCCAG,0.0871
3,CACAAGTC,-0.0789
4,GGCCTGGA,-0.148
5,ATGCTCGA,0.0688
6,ATGATAAT,-0.0923
7,CCGTCCCA,0.0146
8,AGTGTCCC,-0.0758
9,ATCAGGTC,-0.062
10,GCTCATAA,-0.0403
11,AATAATCG,0.186
12,AAAGTGGC,0.295
13,GATGGGTA,0.0154
14,ACCGGTAG,0.141
15,AAACATGA,0.0477
16,TCTCTTAA,-0.123
17,GGGCCATA,0.165
18,CTTCGCAA,0.159
19,TATAGCGA,-0.147
20,ACGGATAC,0.14
21,CACCAGCC,0.0514
22,CTTTGACA,-0.0963
23,CTTGGCCA,-0.0769
24,CGGGTAGC,0.0251
25,ATATAGCC,0.011

row,Sequence,PBM E-score
1,CTTGGCAC,0.187
2,GCCAGAAC,0.00095
3,ACGTTTGA,-0.0706
4,AGTTATAG,-0.0406
5,ATTACCTA,-0.0146
6,AGCTCGAC,0.027
7,CCCAGGCC,-0.126
8,CGGTTGTC,-0.149
9,GCGACTAA,0.0904
10,ATATCTAC,-0.176
11,GCCTGTAA,0.109
12,ATCTTCCA,0.137
13,ACCGCGGA,-0.0696
14,ACTACCAA,0.0195
15,AGATAACC,0.0498
16,AGTGAGAG,-0.256
17,CAGAGACG,0.0567
18,GCCCAGCA,-0.0906
19,CGTTGACA,-0.307
20,GAAAGAAC,-0.0712
21,ACGGGGAC,0.0874
22,AGCTTTAC,-0.194
23,AGGAAGAA,-0.162
24,ATCTTAGG,0.242
25,AACCTCGT,-0.00914

row,Sequence,PBM E-score
1,AGACTAGG,0.036
2,CGGATAGA,-0.158
3,ATCAGATA,-0.111
4,GTGGTGGA,0.24
5,CCCACAGA,-0.0146
6,CGATTAGA,0.0902
7,GGTACCTA,0.123
8,CGTACTAA,-0.00353
9,AGTGGGCG,0.21
10,AATCCGAC,-0.0961
11,GGTGGCCA,-0.0439
12,GAAAGATA,0.0822
13,ACAATGGA,0.114
14,ACGCTTCC,0.313
15,CGCTCCGA,-0.0796
16,ACCCCCCA,-0.262
17,CGACTGAA,0.123
18,CTGTACTC,0.0724
19,GACTAAAC,-0.0931
20,TCTATACA,0.0121
21,CAAGCGTG,-0.246
22,ATCCAGGC,0.105
23,CTCTAGCC,-0.0711
24,CCGAAGAC,-0.0175
25,CGCGTTGA,0.0422

row,Sequence,PBM E-score
1,CTGTCGTA,-0.167
2,GCCCTCAA,-0.0439
3,ACCGGAGA,-0.0699
4,GGTCCCTA,0.147
5,CGATATAC,0.065
6,AACCCGAG,-0.0239
7,CGTAGAGA,-0.153
8,CTCGCCGC,-0.156
9,CTTCTCAA,0.122
10,CACTGCGA,-0.0736
11,ACGTGCTA,-0.151
12,ATCCACGC,-0.00091
13,GTTTTACA,0.0334
14,CTCTATTC,0.0878
15,GTAATGAC,-0.0576
16,GTAGGTTA,0.0377
17,GTCTAAGA,-0.0474
18,GGCGGAGA,0.108
19,GCATCGGC,-0.181
20,CAATTCGC,-0.067
21,ACCTTTAT,-0.0342
22,CTGGGTTC,0.263
23,AGGAGACA,-0.027
24,GTAAGAGA,-0.0339
25,GCGTACCC,-0.114

row,Sequence,PBM E-score
1,AAGTAGCG,0.0898
2,CGGTCAAG,-0.162
3,ACTGTAAC,-0.08
4,CAGTTGAA,0.0333
5,ACGCATCA,0.13
6,GAACCAGA,0.158
7,GGCCCCGA,-0.0513
8,CAAGTTCC,0.233
9,AGATAGAG,0.00308
10,ACGTGGTG,-0.0699
11,GGGGGTCA,-0.287
12,TGTTTGAA,0.24
13,AGAATTCG,0.117
14,CGGGTGCC,0.377
15,ATGGCACC,0.201
16,AGTTTTAC,-0.0167
17,CGCGTTGC,-0.0294
18,CTTGACCA,-0.0951
19,AGGATGCG,0.21
20,GTTCCGTA,0.00192
21,ACTAGAAG,0.259
22,AACATGCG,0.0448
